Source: patent US20140113348A1 (CITY OF HOPE, published 2014)

What was measured:
HER2 on SKBR3 cells = molecular target: T1, HER2 on SKBR3 cells (UniProt P04626); assay: FACS, SKBR3 cells without antibody
T1 construct: whole, on cells; also called HER2-expressing cells (SKBR3)

wild-type trastuzumab = molecular target: T2, wild-type trastuzumab; assay: FACS, Alexa 488 labeled meditope-Fc on SKBR3 cells pre-incubated with wild-type trastuzumab [lower panel]
T2 construct: also called WT T
T2 sequence (heavy, as listed by the source limits assumed, chain 1 of 2, other chains not shown): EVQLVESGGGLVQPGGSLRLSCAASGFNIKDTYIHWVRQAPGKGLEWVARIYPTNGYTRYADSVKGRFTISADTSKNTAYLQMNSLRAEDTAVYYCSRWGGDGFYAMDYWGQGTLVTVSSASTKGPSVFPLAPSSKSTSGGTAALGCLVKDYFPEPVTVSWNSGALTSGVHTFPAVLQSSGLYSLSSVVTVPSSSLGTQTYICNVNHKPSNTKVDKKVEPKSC

Binder: CQFDLSTRRLKCGGGSGSGSGGSSGGGGG[… human IgG1 Fc …] (Fc fusion, also called bivalent meditope-Fc)
- binding result (HER2 on SKBR3 cells): no binding
- binding result (wild-type trastuzumab): no binding
